Hit rate of the full screen: of about 310,000 compounds, about 2,200 (0.71%) showed an effect of 50% or more. Effects have a minus sign here. Some of the results follow.

Sequence of human ether-à-go-go-related gene (hERG) potassium channel (Q12809 whole entry, looked up): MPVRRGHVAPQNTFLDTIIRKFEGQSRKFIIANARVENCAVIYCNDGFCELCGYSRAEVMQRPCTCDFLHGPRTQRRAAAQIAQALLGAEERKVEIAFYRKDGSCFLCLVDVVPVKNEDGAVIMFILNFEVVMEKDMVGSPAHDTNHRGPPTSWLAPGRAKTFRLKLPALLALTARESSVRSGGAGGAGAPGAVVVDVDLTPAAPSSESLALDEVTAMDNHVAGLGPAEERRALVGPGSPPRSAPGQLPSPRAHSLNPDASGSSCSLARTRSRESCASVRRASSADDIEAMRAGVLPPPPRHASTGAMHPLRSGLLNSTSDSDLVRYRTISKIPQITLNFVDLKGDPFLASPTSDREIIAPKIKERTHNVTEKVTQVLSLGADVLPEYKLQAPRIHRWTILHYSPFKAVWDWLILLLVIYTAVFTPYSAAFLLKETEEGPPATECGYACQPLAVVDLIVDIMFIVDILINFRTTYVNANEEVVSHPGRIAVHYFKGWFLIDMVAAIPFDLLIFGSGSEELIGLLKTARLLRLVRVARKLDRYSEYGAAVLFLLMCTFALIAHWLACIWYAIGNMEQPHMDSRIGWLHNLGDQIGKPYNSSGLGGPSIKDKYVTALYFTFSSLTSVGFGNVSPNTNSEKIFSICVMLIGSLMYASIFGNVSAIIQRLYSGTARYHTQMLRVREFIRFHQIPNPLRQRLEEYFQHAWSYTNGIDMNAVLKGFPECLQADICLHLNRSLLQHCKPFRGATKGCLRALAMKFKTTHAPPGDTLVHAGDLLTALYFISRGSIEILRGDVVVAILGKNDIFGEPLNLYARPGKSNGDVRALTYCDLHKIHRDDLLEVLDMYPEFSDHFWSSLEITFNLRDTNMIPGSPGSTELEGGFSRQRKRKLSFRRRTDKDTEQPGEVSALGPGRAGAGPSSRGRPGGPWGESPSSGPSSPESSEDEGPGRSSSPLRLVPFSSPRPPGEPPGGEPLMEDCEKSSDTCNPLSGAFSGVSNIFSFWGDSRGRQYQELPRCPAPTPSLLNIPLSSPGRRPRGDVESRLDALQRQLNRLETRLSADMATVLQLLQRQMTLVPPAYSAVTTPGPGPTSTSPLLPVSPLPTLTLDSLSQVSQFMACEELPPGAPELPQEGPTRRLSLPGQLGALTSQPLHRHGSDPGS

This experiment concerns the target human ether-à-go-go-related gene (hERG) potassium channel (human, UniProt Q12809). Briefly: primary screen, population patch clamp on CHO cells stably expressing hERG.
With `Cc1ccc(C)c(-n2c3nc(=O)n(C)c(=O)c-3cc3ccccc32)c1`, the “hERG current change (%, negative = inhibition) at 1uM” value is reported as 11.4%.
As for `Cn1c(=O)c2c(ncn2CC(=O)N/N=C/C=C/c2ccccc2)n(C)c1=O`, the figure is 7.44%; as for `NS(=O)(=O)c1ccc(NC(=O)COC(=O)CSc2n[nH]c(-c3ccccc3)n2)cc1`, 12.5%.
As for `Cc1ccccc1-c1nc(C#N)c(NCc2ccco2)o1`, the figure is -13.9%.
The value for `c1csc(CSc2nc3ccccc3s2)c1` was 13.4%.
`CCc1ccc2c(CN3CCN(S(=O)(=O)c4cccs4)CC3)cc(=O)oc2c1`: the “hERG current change (%, negative = inhibition) at 1uM” value is recorded as -0.807%.
The value for `COc1ccc(-c2nnn(CC(=O)NCCc3ccc(OC)c(OC)c3)n2)cc1` was 12.3%; that for `CC(=O)Nc1ccc(NC(=O)C(C)OC(=O)/C(C#N)=C/c2ccc(N(C)C)cc2)cc1` (stereo not drawn) was 2.57%; that for `O=C(c1cccs1)N1CCN(C(=O)N2CCOCC2)CC1` was 15.2%.
As for `CCOc1ccc2nc(NCCNC(=S)NCCCN(C)C)c(C#N)cc2c1`, the figure is -3.65%; as for `O=C(O)C1SCCN1S(=O)(=O)c1ccc(N=NN2CCOCC2)cc1` (stereo not drawn), 8.42%.
As for `O=C1OCC/C1=C\OCCCO/C=C1\CCOC1=O`, the figure is 14.3%; as for `O=C(N/N=C/c1sc2ccccc2c1O)c1ccccc1`, 5.08%; as for `COc1ccc(C2CC(c3cccs3)=NN2C(=O)CN2CCCCC2)cc1` (stereo not drawn), -27.7%.
For the molecule `Cc1oc(-c2cccs2)nc1CN1CCN(CC(C)C)C(CCO)C1` (stereo not drawn), the “hERG current change (%, negative = inhibition) at 1uM” value is reported as 6.6%.
The value for `COc1ccc2c(CC(=O)OCC(=O)Nc3cc(C)c(C)cc3[N+](=O)[O-])coc2c1` was 6.23%; that for `COc1ccc2c(c1)CC1(CN2C)C(=O)NC(=O)N(c2ccc(C)cc2)C1=O` (stereo not drawn) was 12.1%.
The value for `CC(OC(=O)C(C)Oc1ccccc1)C(=O)Nc1ccc(S(=O)(=O)N2CCCCC2)cc1` (stereo not drawn) was 12.9%; that for `O=C(NCC(=O)N(Cc1cccs1)C(C(=O)NC1CCCC1)c1ccco1)c1cccs1` (stereo not drawn) was 13.6%.
As for `COc1ccc(CCN2C(=O)CN=C2Nc2ccc(F)cc2)cc1OC`, the figure is 7.26%; as for `Cc1ncc([N+](=O)[O-])n1CC(=O)NCCc1ccccc1`, 10.8%.
For the molecule `COCC(=O)N1CCCc2ccccc21`, the “hERG current change (%, negative = inhibition) at 1uM” value is 1.28%.
With `Cc1ccc(Cl)cc1N1CCN(S(=O)(=O)c2cnc[nH]2)CC1`, the “hERG current change (%, negative = inhibition) at 1uM” value is reported as 1.64%.
As to `Cl.NC(CCCCc1ccccc1)c1cccc2ccccc12` (stereo not drawn), the “hERG current change (%, negative = inhibition) at 1uM” value is recorded as 12.9%.
With `COc1ccc(C(=O)CCS(=O)(=O)c2ccc(C)cc2)cc1OC`, the “hERG current change (%, negative = inhibition) at 1uM” value came out at 8.44%.
As for `COC(=O)C(O)(c1ccc(NC(=O)c2cccs2)c(C)c1)C(F)(F)F` (stereo not drawn), the figure is 13.2%.
The value for `CCN(CC)C(=O)c1sc2nc(-c3ccc(OC)cc3)cn2c1C` was 4.72%; that for `COCCNc1nc(-c2ccccc2)nc2c1oc1ccccc12.Cl` was 10.4%; that for `NNC(=O)CN1CCCc2ccccc21` was 18.3%.
For `Cc1ccc(C(=O)N2CCCC(c3nc4c(nnn4Cc4ccccc4)c(=O)[nH]3)C2)cc1` (stereo not drawn), the “hERG current change (%, negative = inhibition) at 1uM” value is reported as -21.9%.
As for `N/C(=N\OC(=O)N1c2ccccc2Sc2ccccc21)c1ccc(Br)cc1`, the figure is -3.59%; as for `O=C(c1ccccc1)N(Nc1ccccc1)c1ccccc1`, 12.1%; as for `C/C(=N/NS(=O)(=O)c1ccc(C)cc1)c1c[nH]c2ccccc12`, 12.1%.
As for `O=C(Nc1ccc(N2CCOCC2)cc1)c1nc2ccccc2s1`, the figure is 3.45%; as for `Cc1cccc(CS(=O)(=O)Cc2ccc(C(=O)NC(C)c3ccccc3)o2)c1` (stereo not drawn), 11.1%; as for `Cc1ccc(-c2csc3ncnc(SCC(=O)NCc4ccc5c(c4)OCO5)c23)cc1`, 7.69%.
The value for `Cc1ccc(-n2cccc2/C=N/n2cnnc2)cc1Cl` was 6.56%.
With `CC(=C/c1ccccc1)/C=N/N1CCN(Cc2ccc(C)cc2)CC1`, the “hERG current change (%, negative = inhibition) at 1uM” value came out at 12.6%.
The value for `Cc1ccc(S(=O)(=O)Cn2nnnc2C(CC(C)C)N2CCC(C(N)=O)CC2)cc1` (stereo not drawn) was 6.43%; that for `CC(C)Oc1cccc(C(=O)C2CCCN(Cc3cnn(C(C)C)c3)C2)c1` (stereo not drawn) was -5.14%.
As for `CCC(=O)NCCc1nc2cc(NC(=O)c3ccco3)ccc2n1C`, the figure is 19%.
With `Cc1cccc(C(=O)NC2CCN(CC(=O)NCc3ccccc3F)CC2)c1`, the “hERG current change (%, negative = inhibition) at 1uM” value was 1.91%.
For the molecule `COc1ccc2nc(NC(=O)C3CCN(S(=O)(=O)c4cccnc4)CC3)sc2c1`, the “hERG current change (%, negative = inhibition) at 1uM” value is listed as -15.3%.
As for `CCCCCOc1ccccc1C(=O)NCCC(=O)O`, the figure is 19.8%; as for `COc1ccc(CNS(=O)(=O)c2cc3c(cc2Cl)NC(=O)CO3)cc1`, -3.85%.
`Cc1cccc(C)c1NC1=NC(=S)N(c2ccccc2)C12CCOC(C)(C)C2` (stereo not drawn): the “hERG current change (%, negative = inhibition) at 1uM” value amounted to 10.7%.
With `Cc1cccc(C(=O)OCC(=O)NCc2cccs2)c1`, the “hERG current change (%, negative = inhibition) at 1uM” value amounted to 11.9%.
As for `Cc1nnsc1C(=O)N1CCC(C(=O)c2ccccc2)CC1`, the figure is 11.1%; as for `COc1ccc(OC)c(NC(=O)C2CCN(S(=O)(=O)c3cccs3)CC2)c1`, -2.62%.
As to `COc1cccc(CNC(=O)C2CCN(S(=O)(=O)N3CC(C)CC(C)C3)CC2)c1` (stereo not drawn), the “hERG current change (%, negative = inhibition) at 1uM” value amounted to 7.69%.
The value for `C/C(=N\NC(=O)c1ccoc1C)c1cccnc1` was 15%.
The value for `CCN(CC)C(=O)C12CC3CC(CC(Cl)(C3)C1)C2` was 8.23%.
`CCOC(=O)c1c(NC(C)=O)sc2c(OC)cccc12`: the “hERG current change (%, negative = inhibition) at 1uM” value is on record as 4.3%.
As for `CC(C)(C)OC(=O)NCc1ccc(CNC(=O)c2nc[nH]c2C(=O)NCc2ccccc2)cc1`, the figure is 12.7%; as for `COC(=O)CSc1nc2c(c(C3CC=CCC3)c1C#N)CCC2` (stereo not drawn), 13.6%; as for `Cc1ccc(CS(=O)(=O)CC(C)(O)c2ccc(Cl)cc2)cc1` (stereo not drawn), 5.92%.
As for `CC(C)=C(NC(=O)c1ccccc1)C(=O)N/N=C/c1ccc(O)cc1`, the figure is -6.84%.

Source of the values: PMC4336329 (PLoS ONE, 2015).
